Measurements as given in PubChem BioAssay AID1259400 (National Center for Advancing Translational Sciences (NCATS), 2018).
Among all 350,000 compounds or so, about 2,100 (0.6%) were called active. Inconclusive means that the source gave no clear call. Such entries were picked first, then a sample of the others.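 The calls were made as follows: active = activity change of -60% or lower, but not beyond a set lower limit; inconclusive = change between -60% and -40%, or beyond the set limit; inactive = change above -40%.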
% is scaled to controls: 0 for no effect and ±100 for the full control effect.

Each compound was assayed against Relaxin receptor 1 (Homo sapiens) (UniProt Q9HBX9) (assay: qHTS Assay for Antagonists of the Relaxin Receptor RXFP1). Conditions: HEK293-RXFP1, relaxin-stimulated cAMP HTRF, 30 min; at 57.5 µM; hits give low values.
Chain of UniProt Q9HBX9 (Q9HBX9 whole entry, looked up): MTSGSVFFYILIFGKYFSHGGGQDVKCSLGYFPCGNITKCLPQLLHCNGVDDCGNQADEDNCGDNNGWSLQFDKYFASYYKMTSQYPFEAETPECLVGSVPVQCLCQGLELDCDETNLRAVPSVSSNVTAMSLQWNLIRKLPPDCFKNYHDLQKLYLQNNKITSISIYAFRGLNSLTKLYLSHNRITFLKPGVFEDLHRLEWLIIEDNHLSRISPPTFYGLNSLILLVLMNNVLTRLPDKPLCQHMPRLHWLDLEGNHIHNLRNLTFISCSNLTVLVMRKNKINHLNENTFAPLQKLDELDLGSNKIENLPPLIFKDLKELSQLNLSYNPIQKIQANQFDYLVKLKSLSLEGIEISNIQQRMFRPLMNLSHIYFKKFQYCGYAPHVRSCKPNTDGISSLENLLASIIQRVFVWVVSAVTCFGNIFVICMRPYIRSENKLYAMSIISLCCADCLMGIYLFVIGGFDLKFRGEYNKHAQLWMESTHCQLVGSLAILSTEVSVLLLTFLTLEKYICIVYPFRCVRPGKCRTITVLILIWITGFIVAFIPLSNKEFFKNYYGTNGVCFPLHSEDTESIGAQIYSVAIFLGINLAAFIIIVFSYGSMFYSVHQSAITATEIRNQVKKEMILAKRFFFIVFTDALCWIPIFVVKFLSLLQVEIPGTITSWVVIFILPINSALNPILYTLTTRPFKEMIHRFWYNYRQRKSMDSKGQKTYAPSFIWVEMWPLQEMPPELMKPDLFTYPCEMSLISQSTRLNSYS
For C=CCc1c(C)[nH]c(=S)c(C#N)c1C, the activity change, negative = inhibition was inconclusive: -43.3%. O=c1c(-c2ccccc2)c(-c2ccccc2)oc2cc(O)cc(O)c12 was tested, and the activity change, negative = inhibition was inconclusive: -48.4%. For Oc1ccc(N=Nc2nccs2)c(O)c1, the activity change, negative = inhibition was inconclusive: -53.2%. For CCOc1ccc(NS(=O)(=O)c2c(C)nc3sc(C)c(C)n3c2=O)cc1, the activity change, negative = inhibition was inconclusive: -48.3%. In the case of Cc1ccc(N(C)C(=O)c2sc3nc4n(c(=O)c3c2C)CCCC4)cc1C, the activity change, negative = inhibition was inconclusive: -45.7%. CCCCN(CC)C(=O)CSc1nc2n[nH]c(C)c2c(=N)n1-c1ccc(CC)cc1 was tested, and the activity change, negative = inhibition was inconclusive: -45.3%. With O=C(Nc1ccc2c(c1)oc1ccccc12)c1ccc2c(c1)OCO2 the activity change, negative = inhibition was inactive: -12%. COc1ccc2sc(N(Cc3cccnc3)C(=O)C3CCCCC3)nc2c1 was tested, and the activity change, negative = inhibition was inconclusive: -56.2%. With CCOc1cccc2c1N[C@@H](c1ccc(C(=O)O)cc1)[C@H]1CC=C[C@@H]21 the activity change, negative = inhibition was inactive: -4.8%. In the case of Fc1cccc2sc(Nc3nc4cc5c(cc4s3)OCCO5)nc12, the activity change, negative = inhibition was inconclusive: -45.8%. For COc1ccc(CCNC(=O)c2ccc3c(c2)N(Cc2ccc(F)cc2)C(=O)CS3)cc1OC, the activity change, negative = inhibition was inconclusive: -43.7%. For CN(C(=O)c1ccc2c(c1)OCCO2)c1c(N)n(Cc2ccccc2)c(=O)[nH]c1=O, the activity change, negative = inhibition was inactive: -8.21%. With FC(F)Oc1ccc(/C=N/NC(=S)Nc2cc(C(F)(F)F)ccc2Cl)cc1 the activity change, negative = inhibition was inconclusive: -41.7%. O=C(c1ccc(COc2ccc(Cl)cc2Cl)o1)N1CCCC1 was tested, and the activity change, negative = inhibition was inconclusive: -40.1%. For Cc1nc(SCc2ccc([N+](=O)[O-])cc2)n[nH]1, the activity change, negative = inhibition was active: -72.5%. For CCCC(=O)Nc1sc(C)c(C)c1C(=O)Nc1cccc(C)c1, the activity change, negative = inhibition was inconclusive: -40.2%. For COCCCNC(=O)c1ccc2c(c1)N(Cc1ccccc1)C(=O)c1ccccc1S2, the activity change, negative = inhibition was inactive: -30.9%. Cc1ccc(-n2nc(C)c3c(C(=O)NCc4ccccc4)cc(C4CC4)nc32)cc1 was tested, and the activity change, negative = inhibition was inactive: 3.68%. With COc1ccccc1CNS(=O)(=O)c1ccc2c(c1)NC(=O)CC(=O)N2 the activity change, negative = inhibition was inactive: 9.56%. With CCOC(=O)COc1cc2c3c(c(=O)oc2cc1C)CCCC3 the activity change, negative = inhibition was inactive: -23.7%. With Cc1ccc(NC(=S)NNC(=O)CSc2nc3ccccc3c(=O)n2-c2ccc(C)cc2)cc1 the activity change, negative = inhibition was inconclusive: -49.5%. For CC(NC(=O)c1cc(S(=O)(=O)N(C)C)ccc1N1CCCC1)C1CC2CCC1C2 (centres undefined), the activity change, negative = inhibition was inactive: -1.6%. With Cc1cccc(C)c1-n1cccc1/C=C1/C(=N)N2C(=NC1=O)SN=C2S(C)(=O)=O the activity change, negative = inhibition was active: -108%. CCCCSc1nc2sc3c(c2c(=O)[nH]1)CCC3 was tested, and the activity change, negative = inhibition was inactive: -2.67%.
